Measurements taken from PubChem BioAssay AID1963576 (National Center for Advancing Translational Sciences (NCATS), 2024).
Screen size: about 46,000 compounds; about 60 (0.1%) were called active. Another 3% or so got no clear call; they are omitted. Calls come from the whole dose curve; as a rule, active = well fitted inhibition curve with a large enough effect; inconclusive = small, poorly fitted or top-dose-only effect; inactive = no such curve, though single readings can be large or run the other way. This is one part of the list.

Experiment: Primary qHTS assay for Inhibitors of ovarian cancer metastasis using an organotypic tumor microenvironment (TME) model.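 For activity change, negative = inhibition: plate controls were DMSO wells for no effect and tomatine positive control wells for full effect.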 Note: nearly all actives have a fitted effect of over 65% in size.
Conditions: SKOV3ip1-GFP adhesion/invasion on 3D omental model, fluorescence; series mostly up to 45.8 µM; activity change, negative = inhibition: at the top concentration
How it was run: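 A 3D layer of primary human omental fibroblasts, mesothelial cells, fibronectin and collagen I, grown 48 hr, received SKOV3ip1-GFP cells in serum-free medium plus compounds at 0.36-46 umol/L. After 2 hr RT and 16 hr 37 C, fixed adherent GFP cells were counted; normalized to DMSO and tomatine.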

outcome, inactive:
Cc1cc(N2CCN(c3cccc(C(F)(F)F)c3)CC2)n2nc(-c3ccccc3)nc2n1
CCOc1ccc(-n2nc(CO)c(C(=O)NCc3cccs3)n2)cc1
COc1ccc(N2CCN(Cc3cccn3-c3nnc(N4CCN(C5CCCCC5)CC4)s3)CC2)cc1
CCOc1ccccc1CNC(=O)Cn1cc2c(n1)-c1c(oc(C(=O)N3CCCC3)c1C)CC2
O=C(CS(=O)(=O)c1cccc2nsnc12)N1CCN(c2cccc(C(F)(F)F)c2)CC1
Cc1ccc(S(=O)(=O)N2CCN(Cc3nc4ccc(C)cc4o3)CC2)cc1
COc1ccc(S(=O)(=O)NCCS(=O)(=O)N2CCN(c3ccccc3)CC2)cc1C
COC(=O)c1ccccc1NC(=O)C1=C(C)C(=O)OC12CCCCCC2
O=C(O)Cc1ccc(NC2(c3ccccc3)C(=O)c3ccccc3C2=O)cc1
COc1ccc(CCCc2nnc(SCC(=O)Nc3cccc(C)c3)o2)cc1
CCN(c1ccc(Cl)cc1)S(=O)(=O)c1nnc(NC(=O)c2ccccc2C)s1
CCOc1ccccc1NC(=O)C1=C(C)Nc2ncnn2C1c1ccc(NC(C)=O)cc1 (stereo unspecified)
Cc1cccc(CCNC(=O)c2ccc(CSCc3cccc(Cl)c3)o2)c1
Cc1ccc(N2CC(NC(=O)CCc3ccccc3)CC2=O)cc1C (stereo unspecified)
NC(=O)c1ccc(NC(=O)C2CCN(S(=O)(=O)Cc3ccccc3)CC2)cc1
Cc1ccc(C(=O)O)cc1NC1(c2ccccc2)C(=O)c2ccccc2C1=O

Activity change, negative = inhibition, inactive:
CCc1cccc(C)c1NC(=O)CCn1c(=O)c2cccn2c2ccccc21 -8.69%
CC(Oc1ccc(Br)cc1)C(=O)Nc1ncn[nH]1 (stereo unspecified) 4.94%
Cc1ccc([N+](=O)[O-])cc1S(=O)(=O)N1CCn2cccc2C1c1ccccc1 (stereo unspecified) -6.29%
CCn1cc(C(=O)N2CCN(c3cc(C)ccc3C)CC2)c(=O)c2cc(S(=O)(=O)N3CCCCC3)ccc21 -8.11%
Cc1nc(SC(C)C(=O)Nc2ccccc2Cl)cc(-c2ccccc2)n1 (stereo unspecified) -0.727%
Cc1ccc(N2C(=O)N(Cc3cc(=O)n4ccccc4n3)c3ccccc3S2(=O)=O)cc1Cl 9.96%
Cc1ccc(C)c(NC(=O)C2CCCN(S(=O)(=O)c3cn(C)cn3)C2)c1 (stereo unspecified) -7.52%
COc1ccc(NC(=O)CCc2nnc3n(Cc4ccccc4Cl)c(=O)c4ccccc4n23)cc1 -7.12%
Cc1ccc2nc(-c3ccc(Cl)c(NC(=O)COc4ccc(C(C)C)cc4)c3)oc2c1 5.47%
O=C1NC(=O)C(=Cc2ccc3nccc(-c4ccncc4)c3c2)S1 -14.6%
CCOC(=O)CSc1nc2ccccc2c(=O)n1-c1cccc(C)c1 -2.77%
CSc1ccc(CCNC(=O)c2ccc(-c3nc(COc4ccc(C)cc4)c(C)o3)cc2)cc1 2.35%
CCNc1cc(N2CCN(C3CCCCC3)CC2)c2noc3c2c1C(=O)c1ccccc1-3 -6.46%
COc1ccc(Br)cc1CNC(=O)CCSCc1ccc(C)cc1 -7.86%
O=C(Cn1cc(S(=O)(=O)c2ccccc2)c(=O)c2cc3c(cc21)OCO3)Nc1ccc(Cl)cc1 13%
O=C(O)Cc1sc(Nc2ccccc2)nc1-c1ccccc1 72.4%
COc1ccc(C(=O)Nc2ccccc2SCc2cc(=O)c3cccc(C)c3[nH]2)cc1 7.13%
COCC(C)NC(=O)c1cc2c(=O)n3cccc(C)c3nc2s1 (stereo unspecified) 14.6%
CCC(C)NC(=O)CCc1c(C)nc2c(c(C)nn2-c2ccc(C)cc2)c1C (stereo unspecified) -7.86%
CCOc1cccc(CC(=O)NCc2ccc3c(c2)CCN3C(C)=O)c1OCC -2.99%
Cc1nn(CCC(=O)NCc2ccc(Cl)cc2)c(=O)c2nn(-c3ccccc3)c(C)c12 -3.41%
COc1ccc(-c2nc3ccc(C4=NNC(=O)CC4C)cc3[nH]2)cc1 (stereo unspecified) 13.5%
COc1ccc(-c2onc(C)c2C)cc1S(=O)(=O)NCc1ccc(C)o1 -16.7%
COc1ccc(NC(=O)CSc2nc3ccccc3n2CC(=O)N2CCCCC2C)cc1 (stereo unspecified) -0.945%
CC(CNC(=O)C1CCN(C(=O)N2CCOc3ccc(Cl)cc32)CC1)c1ccccc1 (stereo unspecified) 6.51%
O=C(NCCCc1nc2ccccc2n1Cc1ccccc1Cl)c1ccco1 3.85%
O=[N+]([O-])c1cc(-c2nc(-c3ccco3)no2)ccc1NCc1ccccc1 5.41%
CN(CC=CC#CC(C)(C)C)Cc1cccc2ccccc12 -4.62%
N#CC1=C2SCN(C3CCCCC3)CN2C(=O)CC1c1c(F)cccc1Cl (stereo unspecified) 0.589%
Cc1ccc(NC(=O)CC2Nc3cc(C)c(C)cc3NC2=O)c(C)c1 (stereo unspecified) 6.35%
Cc1ccc(Cc2nc3ccccc3nc2SCC(=O)N2CCN(c3ccccc3)CC2)cc1 0.533%
Cc1nn(CCCC(=O)NCc2ccc(OC(C)C)cc2)c(=O)c2c1sc1ccccc12 23.9%
COc1ccc(S(=O)(=O)c2nnn(-c3ccccc3F)c2C)cc1 1.19%
COc1ccc(-n2nc(C(=O)N(C)c3cc(Cl)ccc3OC)c3c4ccccc4n(C)c3c2=O)cc1 -15%
COc1ccc(Cn2c(CO)cnc2SCc2ccc(F)cc2)cc1 -1.91%
CCc1ccc(Sc2cc(C(=O)O)c3ccccc3n2)cc1 12.1%
CCOc1ccc(NC(=O)c2c(Nc3ccccc3C)sc(C(=O)c3ccc(Cl)cc3)c2N)cc1 -8.08%
Cc1cccc(N(Cc2cc3ccccc3[nH]c2=O)C(=O)c2cccc(Cl)c2)c1 -13.3%
CCCn1c(=N)n(CC(O)COc2ccccc2OC)c2ccccc21 (stereo unspecified) 3.56%
Cc1ccc(S(=O)(=O)c2[nH]c(-c3ccccc3)nc2SCCC(=O)O)cc1 2.11%
CCn1ccc2c(OCC(=O)NCc3ccccc3)cccc2c1=O -0.915%
CCCN1CCN(c2cc3c(cc2F)c(=O)c(S(=O)(=O)c2ccc(CC)cc2)cn3CC)CC1 -36.7%
Cc1c(Cl)cccc1NC(=O)CSc1nc2ncccc2o1 2.04%
C[C@@H]1[C@H](O)[C@@H](C)C=CC=CC=CC=CC=CC=CC=C[C@H](O[C@@H]2O[C@H](C)[C@H](O)[C@H](N)[C@@H]2O)C[C@@H]2O[C@](O)(C[C@@H](O)C[C@@H](O)[C@H](O)CC[C@@H](O)C[C@@H](O)CC(=O)O[C@H]1C)C[C@H](O)[C@@H]2C(=O)O 0.804%
COc1ccc2oc(-c3ccc(C)c(NC(=O)c4ccc(-c5ccccc5[N+](=O)[O-])o4)c3)nc2c1 5.3%
